Measured values: article PMC4242493
Some of the results follow. The list includes weakly bound sequences.

Target: MaxL homodimer (UniProt P61244)
Experiment: universal protein-binding microarray (PBM)
Conditions: PBS-based mixture, 10 nM His-tagged protein dimer, 2% milk, 200 ng/uL BSA, 50 ng/uL salmon testes DNA, 0.02% TX-100; detection with Alexa 488 anti-His …; high values mean tight binding; most listed sequences are background and not binding sites; double strand, one strand shown

Sequence of UniProt P61244 (P61244 whole entry): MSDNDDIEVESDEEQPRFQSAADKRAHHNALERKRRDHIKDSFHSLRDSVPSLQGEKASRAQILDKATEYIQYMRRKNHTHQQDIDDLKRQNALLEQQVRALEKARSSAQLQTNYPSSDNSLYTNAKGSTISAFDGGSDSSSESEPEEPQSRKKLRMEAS

Row | Sequence | binding signal (normalized occupancy)
1 | CCGCAATC | 0.0712
2 | CCAGAGAC | 0.0699
3 | ATCATGAC | 0.0868
4 | AGGGCTGC | 0.0669
5 | ACGGTTCT | 0.071
6 | GCAAGCGA | 0.0697
7 | AACGACGC | 0.073
8 | GGAAGGAC | 0.0715
9 | ATTTACGC | 0.0786
10 | CGCGTCGA | 0.0756
11 | CAGAACAC | 0.0765
12 | AAAATAAC | 0.0773
13 | GAATTTAC | 0.0767
14 | ATTTGCAG | 0.0761
15 | GAGCCGAA | 0.0662
16 | CCTACAGC | 0.0762
17 | CTTGACTA | 0.0726
18 | CAGTCCTC | 0.084
19 | TCATGCCA | 0.0861
20 | CGATTCGC | 0.0738
21 | CTAGTAGA | 0.0718
22 | GATTTGCC | 0.0729

Row | Sequence | binding signal (normalized occupancy)
23 | TAGACATA | 0.0807
24 | AGTTACAT | 0.0831
25 | ATACTCTC | 0.0748
26 | AAGACTTG | 0.0731
27 | ACTGGGCA | 0.0727
28 | AAGTCAGC | 0.0693
29 | ACATGAAG | 0.0842
30 | ACTGATTC | 0.0736
31 | ACATGAGA | 0.0971
32 | CGTTTTTC | 0.0708
33 | CCCGTAAC | 0.0739
34 | GAAACAGA | 0.069
35 | AATATGTC | 0.0853
36 | GTGAATCA | 0.0763
37 | ACTTCAAG | 0.0754
38 | ACTACTCA | 0.074
39 | ATGGGAAA | 0.0774
40 | ACAGGGAC | 0.0671
41 | AAAGATTC | 0.0828
42 | AGATCCCA | 0.0773
43 | ATAAGTTG | 0.0731
44 | ACTGGTCC | 0.0753

Row | Sequence | binding signal (normalized occupancy)
45 | GACGTTCA | 0.0818
46 | CCGCGGCC | 0.0671
47 | ATGCGGCG | 0.0869
48 | ATCAATCA | 0.0797
49 | CAAGAAGC | 0.0667
50 | TCCCCCGA | 0.0718
51 | ACTTCCTC | 0.0744
52 | AGATGATG | 0.0818
53 | ACGGGAGG | 0.0755
54 | GTCACCGA | 0.0699
55 | GGGTCACA | 0.0805
56 | AGACTCCG | 0.0712
57 | AACTCGGG | 0.0744
58 | AACCTCAG | 0.0714
59 | CCGGTAGG | 0.0697
60 | AATGTACC | 0.0821
61 | CTTGCGAA | 0.0737
62 | GTGAATAA | 0.0848
63 | CGAGATTA | 0.0734
64 | GATGGGAA | 0.078
65 | ACCATAAT | 0.0803
66 | AGGAACGC | 0.0729

Row | Sequence | binding signal (normalized occupancy)
67 | CTTGCGCA | 0.0752
68 | AATTAGCA | 0.0695
69 | ACACGCCT | 0.0971
70 | GTGGAGCA | 0.0811
71 | AACGTGAT | 0.11
72 | ACCGAGCT | 0.0712
73 | AGGATCCG | 0.0689
74 | ACCGTCCC | 0.0745
75 | CTTATTGA | 0.0757
76 | ACCAAGCT | 0.0716
77 | ATTGACTC | 0.0745
78 | TCCAGCAA | 0.0778
79 | CTTTGCTC | 0.0686
80 | GTAGGCAC | 0.0721
81 | GCCTTTCC | 0.071
82 | GGGCTGTA | 0.0762
83 | GAGTACGA | 0.0735
84 | ACTATAGG | 0.0744
85 | GGTAAAGA | 0.0763
86 | GAAACCTA | 0.073
